Measurements published in PubChem BioAssay AID1454 (National Center for Advancing Translational Sciences (NCATS), 2008).
Where “and” joins values, the source holds several entries; their conditions need not be identical. Equal entries are not always repeated. Among all 130,000 compounds or so, about 550 (0.42%) were called active. Inconclusive means that the source gave no clear call. Such entries were picked first, then a sample of the others. Calls come from the whole dose curve; as a rule, active = well fitted inhibition curve with a large enough effect; inconclusive = small, poorly fitted or top-dose-only effect, or effect the other way; inactive = flat fitted curve, though single readings scatter. Potencies of inconclusive entries are doubtful fits and often do not repeat.

Assay: qHTS Assay for Inhibitors of the ERK Signaling Pathway using a Homogeneous Screening Assay; Stimulation with EGF; note: nearly all actives have a fitted effect of over 55% in size;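 for activity change, negative = inhibition: plate controls were stimulated vehicle wells for no effect and unstimulated vehicle basal for full effect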
Settings: HEK293-V1b, EGF-stimulated phospho-ERK AlphaScreen; activity change, negative = inhibition: at the top concentration
In short: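 In this qHTS, HEK293 cells with stable type-1 vasopressin (V1b) receptor were exposed to compound at 37C for 30 min, stimulated 5 min with EGF at 25 nM, lysed, and probed for phospho-ERK by AlphaScreen.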
Potency is the fitted concentration of half-maximal effect; tags give direction and shape of the fitted curve.

Compound | Potency | activity change, negative = inhibition
COc1ccc(/C=N/NC(=O)c2cccc(Br)c2)cc1COc1ccccn1 | inconclusive: 35.5 µM [inhibitor, single point] | 
CC1CCCN(c2ccc(C(=O)NCc3ccc4c(c3)OCO4)cc2[N+](=O)[O-])C1 (stereo not drawn) | inconclusive: 25.1 µM [inhibitor, single point] | 
Cc1cc(C)c2c(=O)n(CC(=O)Nc3ccc(Cl)cc3)sc2n1 |  | inactive: 3.28% [at 57.5 µM]
O=C(Nc1nc(-c2ccc(Cl)cc2Cl)cs1)C1CCCO1 (stereo not drawn) | inconclusive: 39.8 µM [inhibitor, single point] | 
CCC(C)Sc1cc(C)c(C#N)c2nc3ccccc3n12 (stereo not drawn) | inconclusive: 39.8 µM [inhibitor, single point] | 
C=CCOC(=O)N[C@@H](CCc1ccccc1)C(C(C)=O)C(C)=O |  | inactive: -1.27%
O=C1OC(c2ccccc2)c2ccc3ccccc3c21 (stereo not drawn) | inconclusive: 28.2 µM [inhibitor, single point] | 
Nc1ccc(N=Nc2ccccc2)c2ccccc12 | active: 17.8 µM | 
CCOC(=O)c1sc(NC(=O)Nc2cccc(Cl)c2)cc1C | inconclusive: 25.1 µM [inhibitor, partial curve] | 
COc1ccc(C)cc1N=Nc1ccc(O)c2ncccc12 | inconclusive: 1.12 µM [inhibitor, full curve, poor fit] | 
Oc1cccc(Nc2nc(O)c(/C=C3\C=Nc4ccccc43)s2)c1 | inconclusive: 35.5 µM [inhibitor, single point] | 
CC(=O)N1CCc2c(sc(NC(=O)c3ccc([N+](=O)[O-])o3)c2C#N)C1 |  | inactive: -0.201%
NS(=O)(=O)c1cccc(NC(=O)CN2CCCc3ccccc32)c1 | inconclusive: 22.4 µM [inhibitor, single point] | 
Cc1ccc(OCC(=O)NNc2c3ccccc3nc3ccccc23)cc1 | inconclusive: 35.5 µM [inhibitor, single point] | 
N#Cc1ccccc1NC(=O)CC1c2ccccc2Oc2ccccc21 | inconclusive: 25.1 µM [inhibitor, single point] | 
OCCN1CCN(CCCN2c3ccccc3Sc3ccc(Cl)cc32)CC1 | inconclusive: 39.8 µM [inhibitor, single point] and inconclusive: 22.4 µM [inhibitor, single point] | 
CCOC(=O)c1sc(N=NC2=C(O)CC(C)(C)CC2=O)c(C(=O)OCC)c1C | inconclusive: 28.2 µM [inhibitor, partial curve] | 
CCOC(=O)c1ccc(NC(=O)CSc2nc3cccnc3n2C)cc1 | inconclusive: 39.8 µM [inhibitor, single point] | 
Cc1ccc(NC(=O)C2CCN(S(=O)(=O)c3c(C)noc3/C=C/c3ccco3)CC2)nc1 | inconclusive: 31.6 µM [inhibitor, single point] | 
COc1ccc(NC(=O)C2CCCN2C(=O)Oc2ccccc2)cc1 (stereo not drawn) | inconclusive: 3.16 µM [activator, partial curve] | 
Nc1ccc(C(=O)NCC(=O)O)cc1 | inactive | 

Compound | Potency | activity change, negative = inhibition
O=C1c2ccccc2C(=O)c2c(NCCCN(CCO)CCO)cccc21 | active: 28.2 µM | 
O=c1[nH]c(=S)[nH]c2sccc12 | inconclusive: 2.82 µM [inhibitor, single point] | 
Cc1ccc(CN2CCN(/N=C/C=C/c3ccccc3[N+](=O)[O-])CC2)cc1 | inconclusive: 22.4 µM [inhibitor, single point] | 
Cc1ccccc1NS(=O)(=O)c1cc(C(=O)Nc2cccc([N+](=O)[O-])c2)ccc1C | inconclusive: 15.8 µM [inhibitor, partial curve] | 
COc1ccc(Nc2ccc(N3C(=O)CCCC3=O)cc2[N+](=O)[O-])c(OC)c1 | inconclusive: 11.2 µM [inhibitor, partial curve] | 
O=C(Nc1cccc(-c2csc(Nc3cccc(C(F)(F)F)c3)n2)c1)c1ccccc1 | inconclusive: 39.8 µM [inhibitor, single point] | 
CCOC(=O)C1(C(C)(C)CC)CC(CSc2nc3ccccc3[nH]2)OC1=O (stereo not drawn) | inconclusive: 28.2 µM [inhibitor, single point] | 
COc1ccc(-c2[nH]ncc2CN(Cc2nccn2C)C(C)C)cc1F | inconclusive: 35.5 µM [inhibitor, single point] | 
COc1ccc(/C=C/C(=O)NC(=S)NCC2CCCO2)cc1 (stereo not drawn) | inconclusive: 39.8 µM [inhibitor, single point] | 
CCOC(=O)C1=CN(CC2CCCO2)C=C(C(=O)OCC)C1c1ccccc1C(F)(F)F (stereo not drawn) | inconclusive: 11.2 µM [activator, partial curve] | 
C/C(=C\C(=S)Nc1ccccc1)Nc1cccc2ccccc12 | inconclusive: 28.2 µM [inhibitor, single point] | 
COc1ccc(-c2csc(C3=C(O)CN(C(C)C)C3=N)n2)cc1OC | inconclusive: 39.8 µM [inhibitor, single point] | 
COc1ccc(-c2[nH]ncc2CN(C)CCCN2CCOCC2)cc1F | inconclusive: 39.8 µM [inhibitor, single point] | 
CCCC(=O)N1c2ccccc2C(=C2SC(C(=O)OC)=C(C(=O)OC)S2)C(=S)C1(C)C | active: 12.6 µM | 
CC(=O)Oc1cccc2c1C(=O)c1c(OC(C)=O)cc(C(=O)O)cc1C2=O | inconclusive: 35.5 µM [inhibitor, single point] | 
CCOC(=O)c1c(CS(=O)(=O)c2ccccc2)n(C)c2cc(Br)c(O)c(CN(C)C)c12 | inconclusive: 0.0708 µM [activator, full curve, poor fit] | 
COc1ccc(/C=C/C2=Nc3ccccc3NC(C)(C)C2)cc1OC | inconclusive: 14.1 µM [inhibitor, partial curve, poor fit] | 
O=C(COC(=O)c1cn(-c2ccccc2)nc1-c1ccccc1)c1ccc([N+](=O)[O-])cc1 | inconclusive: 17.8 µM [inhibitor, partial curve] | 
CCN(CC)S(=O)(=O)c1ccc(OC)c(NC(=O)/C=C/c2ccco2)c1 | inconclusive: 31.6 µM [inhibitor, single point] | 
CC1(C(=O)OCc2cc(=O)n3cc(Br)ccc3n2)CC1(Cl)Cl (stereo not drawn) | inconclusive: 3.98 µM [inhibitor, single point] | 
Cn1cccc1/C=C1\SC(=S)N(NC(=O)c2cccc(Cl)c2)C1=O | inconclusive: 22.4 µM [inhibitor, single point] | 

Compound | Potency | activity change, negative = inhibition
Cc1ccc(-n2nc(-c3ccc(OC(F)(F)F)cc3)cc2N)cc1C | inconclusive: 20 µM [inhibitor, single point] | 
O=C(Nc1cccc(-c2ccc3nncn3n2)c1)c1ccco1 | inconclusive: 3.55 µM [inhibitor, single point] | 
NC(C(=O)O)C(O)C(=O)O (stereo not drawn) |  | inactive: 16.4%
Cc1cc(C)nc(NC(=NCCc2c[nH]c3ccccc23)NC(=O)C(C)(C)C)n1 | inconclusive: 39.8 µM [inhibitor, single point] | 
O=C(N=Nc1c(O)[nH]c2ccccc12)c1cc(-c2cccs2)[nH]n1 | inconclusive: 11.2 µM [inhibitor, partial curve] | 
Cc1c(F)cccc1NS(=O)(=O)c1ccc2c(c1)NC(=O)CO2 | inconclusive: 28.2 µM [inhibitor, single point] | 
CCOc1ccc(NC(=O)COc2ccccc2)c([N+](=O)[O-])c1 | inconclusive: 15.8 µM [inhibitor, partial curve] | 
COc1cc(/C=C2\COC/C(=C\c3cc(OC)c(OC)c(OC)c3)C2=O)cc(OC)c1OC | inconclusive: 0.631 µM [inhibitor, full curve, poor fit] | 
COc1ccc(C(=O)c2cc3c(cc2[N+](=O)[O-])OCCO3)cc1 | inconclusive: 39.8 µM [inhibitor, single point] | 
CCC1(O)CC2CN(CCc3c([nH]c4ccccc34)[C@@](C(=O)OC)(c3cc4c(cc3OC)N(C)C3[C@]45CCN4CC=C[C@@](CC)([C@@H](OC(C)=O)[C@]3(O)C(=O)OC)[C@H]45)C2)C1 (stereo partly drawn) |  | inactive: 14.6%
CCOC(=O)C(C)N1C(=O)S/C(=C/c2cc(C)n(-c3ccncc3)c2C)C1=O (stereo not drawn) | inconclusive: 10 µM [inhibitor, partial curve] | 
COC(=O)[C@@H]1C[C@@H]2CC[C@@H](O)C[C@@H]2N1Cc1ccc(C(F)(F)F)cc1 | inactive | 
CC(C)CNS(=O)(=O)c1ccc(S(=O)(=O)N2CCC3(CC2)OCCO3)cc1 | inconclusive: 28.2 µM [activator, partial curve] | 
COc1cc(NC(=S)N2CCN(c3ccccn3)CC2)c(OC)cc1Cl | inconclusive: 3.16 µM [activator, partial curve] | 
CC1=C(C#N)c2nc(N)c(C#N)c(C)c2/C1=C\c1ccc(-c2ccccc2C(=O)O)o1 | inconclusive: 17.8 µM [inhibitor, partial curve] | 
S=C(Nc1ccc(Br)cc1Cl)NC1CCN(Cc2ccccc2)CC1 | inconclusive: 39.8 µM [inhibitor, single point] | 
Oc1ccccc1Nc1nc(NCc2ccccc2)c2ccccc2n1 | inconclusive: 39.8 µM [inhibitor, single point] | 
O=C(COc1ccc2ccccc2c1)NNC(=O)Cc1ccccc1 |  | inactive: -1.23%
CCN1C(=O)/C(=C/c2ccc(N3CCCC3)cc2)NC1=S | inconclusive: 39.8 µM [inhibitor, single point] | 
CN1CCN(c2ncc3nc(CCc4ccccc4)c(=O)n(Cc4ccc(F)cc4)c3n2)CC1 | inconclusive: 22.4 µM [inhibitor, single point] | 
O=C(NNC(=O)c1cc(-c2ccccc2)n(-c2ccccc2)n1)c1cccc([N+](=O)[O-])c1 |  | inactive: -8.03%
